Experimental findings from PMC4575093 are described below.

What all share (assay): pull-down; purified GST fusion (10 μg GST-POR deletions; GST-H-rev107 deletion variants) as bait, partner in vitro transcribed and translated; 4°C for 2 h in 50 mM HEPES pH 7.4, 150 mM NaCl, 1 mM EDTA, 1 mM EGTA, 10% glycerol, 1% Triton X-100; western blot with anti-FLAG or anti-MYC; only the target purified
Background: Immunoblotting shows a protein as a band on a membrane.

One assay addresses T1, GST-POR_(1–430) (mouse) (UniProt P37040).
T1 sequence: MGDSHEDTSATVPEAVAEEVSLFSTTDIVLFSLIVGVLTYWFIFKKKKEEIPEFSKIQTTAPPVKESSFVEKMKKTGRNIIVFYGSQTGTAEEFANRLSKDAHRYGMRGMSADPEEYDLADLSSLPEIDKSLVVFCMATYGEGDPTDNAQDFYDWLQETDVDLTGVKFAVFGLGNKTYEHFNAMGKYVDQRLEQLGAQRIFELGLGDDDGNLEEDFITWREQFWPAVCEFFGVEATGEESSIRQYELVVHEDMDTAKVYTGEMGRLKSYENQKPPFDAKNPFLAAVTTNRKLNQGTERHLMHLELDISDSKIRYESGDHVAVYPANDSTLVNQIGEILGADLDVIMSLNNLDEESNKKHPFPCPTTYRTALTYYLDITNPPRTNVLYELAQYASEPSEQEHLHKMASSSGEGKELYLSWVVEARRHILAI

In a further assay the target is T2, GST-POR_(1–603) (mouse) (UniProt P37040).
T2 sequence: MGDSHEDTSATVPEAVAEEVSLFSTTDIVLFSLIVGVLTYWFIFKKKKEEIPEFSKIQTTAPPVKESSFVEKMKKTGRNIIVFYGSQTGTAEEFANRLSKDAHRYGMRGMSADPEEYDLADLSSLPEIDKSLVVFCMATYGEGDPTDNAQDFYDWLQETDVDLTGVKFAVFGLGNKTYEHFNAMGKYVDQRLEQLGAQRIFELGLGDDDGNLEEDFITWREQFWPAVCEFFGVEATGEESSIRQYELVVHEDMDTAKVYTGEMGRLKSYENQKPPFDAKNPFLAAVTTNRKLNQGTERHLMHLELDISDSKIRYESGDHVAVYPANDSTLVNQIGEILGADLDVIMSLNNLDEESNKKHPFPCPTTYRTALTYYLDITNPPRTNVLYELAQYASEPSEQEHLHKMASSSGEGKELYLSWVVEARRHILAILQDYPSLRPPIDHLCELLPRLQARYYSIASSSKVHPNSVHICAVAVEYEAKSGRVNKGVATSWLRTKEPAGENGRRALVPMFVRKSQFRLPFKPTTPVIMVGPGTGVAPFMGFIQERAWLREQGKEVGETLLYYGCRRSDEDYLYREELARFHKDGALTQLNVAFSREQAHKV

Another assay addresses T3, GST-POR (mouse) (UniProt P37040).
T3 sequence: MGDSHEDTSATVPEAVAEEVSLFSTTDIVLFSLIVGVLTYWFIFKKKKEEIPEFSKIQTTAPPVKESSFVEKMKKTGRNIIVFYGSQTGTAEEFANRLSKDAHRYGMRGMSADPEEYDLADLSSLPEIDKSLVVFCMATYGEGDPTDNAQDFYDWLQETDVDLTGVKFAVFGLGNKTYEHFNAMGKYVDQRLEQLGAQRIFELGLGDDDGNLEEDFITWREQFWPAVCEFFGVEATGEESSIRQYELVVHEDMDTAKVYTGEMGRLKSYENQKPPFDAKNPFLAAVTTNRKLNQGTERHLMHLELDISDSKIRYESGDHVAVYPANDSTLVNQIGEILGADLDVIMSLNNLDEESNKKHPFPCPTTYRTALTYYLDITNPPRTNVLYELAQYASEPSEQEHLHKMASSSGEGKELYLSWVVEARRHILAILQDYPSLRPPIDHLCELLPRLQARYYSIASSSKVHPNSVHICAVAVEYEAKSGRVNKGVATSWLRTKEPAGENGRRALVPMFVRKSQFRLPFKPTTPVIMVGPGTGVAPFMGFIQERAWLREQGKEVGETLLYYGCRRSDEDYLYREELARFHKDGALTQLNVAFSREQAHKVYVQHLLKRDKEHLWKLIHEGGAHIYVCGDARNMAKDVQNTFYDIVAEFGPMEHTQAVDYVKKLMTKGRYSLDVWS

Results are given in words; binding and its absence hold for the method and conditions named. Binding seen in cells or lysates may run through a third protein. Some binding calls cover weakened binding; strength is not graded here. Where a sequence is shown, tags or fusion partners need not be part of it.

B1: H-rev107-MYC, in vitro transcribed and translated (protein, UniProt Q8R3U1 1-162)
chain: MLAPIPEPKPGDLIEIFRPMYRHWAIYVGDGYVIHLAPPSEIAGAGAASIMSALTDKAIVKKELLCHVAGKDKYQVNNKHDEEYTPLPLSKIIQRAERLVGQEVLYRLTSENCEHFVNELRYGVPRSDQVRDAVKAVGIAGVGLAALGLVGVMLSRNKKQKQ
As to B1, the binding result in the assay with GST-POR_(1–430) (mouse) is “no binding (tested: 10 μg GST-POR deletions)”; in the assay with GST-POR_(1–603) (mouse), “binds”; with GST-POR (mouse), “binds”.
